This is an account of results in paper PMC4336329 (PLoS ONE, 2015).

The campaign covered roughly 310,000 compounds. About 2,200 (0.71%) showed an effect of 50% or more. The effect is printed as a negative number. Some of the results follow.

In the test the target is human ether-à-go-go-related gene (hERG) potassium channel (human, UniProt Q12809). Kind of test: primary screen, population patch clamp on CHO cells stably expressing hERG.
Sequence of human ether-à-go-go-related gene (hERG) potassium channel (Q12809 whole entry, looked up): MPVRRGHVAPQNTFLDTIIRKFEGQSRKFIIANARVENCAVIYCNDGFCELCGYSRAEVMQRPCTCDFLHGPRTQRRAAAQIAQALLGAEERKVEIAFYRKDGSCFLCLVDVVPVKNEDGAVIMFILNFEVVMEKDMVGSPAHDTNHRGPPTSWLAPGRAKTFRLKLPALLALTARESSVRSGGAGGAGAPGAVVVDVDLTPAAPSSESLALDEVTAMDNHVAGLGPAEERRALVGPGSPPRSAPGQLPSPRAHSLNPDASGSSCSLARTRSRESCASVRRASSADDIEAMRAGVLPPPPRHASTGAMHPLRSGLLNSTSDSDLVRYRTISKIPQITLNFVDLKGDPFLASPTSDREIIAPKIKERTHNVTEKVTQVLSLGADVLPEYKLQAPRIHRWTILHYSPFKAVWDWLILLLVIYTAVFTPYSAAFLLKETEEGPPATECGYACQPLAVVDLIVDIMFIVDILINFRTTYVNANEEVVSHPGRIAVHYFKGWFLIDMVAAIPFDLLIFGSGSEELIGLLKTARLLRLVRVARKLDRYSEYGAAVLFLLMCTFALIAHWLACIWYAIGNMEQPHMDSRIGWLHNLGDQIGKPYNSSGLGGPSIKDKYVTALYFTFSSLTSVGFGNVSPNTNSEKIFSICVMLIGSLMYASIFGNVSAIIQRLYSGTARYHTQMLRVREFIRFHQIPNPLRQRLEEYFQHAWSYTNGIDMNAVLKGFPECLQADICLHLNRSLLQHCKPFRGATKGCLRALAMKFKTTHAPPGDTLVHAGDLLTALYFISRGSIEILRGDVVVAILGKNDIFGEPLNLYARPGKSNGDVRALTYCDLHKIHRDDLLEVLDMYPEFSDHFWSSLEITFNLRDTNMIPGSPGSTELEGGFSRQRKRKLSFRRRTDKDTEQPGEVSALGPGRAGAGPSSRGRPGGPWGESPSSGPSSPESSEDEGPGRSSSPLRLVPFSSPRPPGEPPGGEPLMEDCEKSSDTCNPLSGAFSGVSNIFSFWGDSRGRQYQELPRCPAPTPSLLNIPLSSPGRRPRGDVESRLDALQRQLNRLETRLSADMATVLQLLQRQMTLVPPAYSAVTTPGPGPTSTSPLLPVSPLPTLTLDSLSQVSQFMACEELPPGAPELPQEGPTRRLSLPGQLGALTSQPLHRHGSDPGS
For the molecule `COc1cc(SC)ccc1C(=O)N1CCCCCC1`, the “hERG current change (%, negative = inhibition) at 1uM” value was found to be 15.5%. Next, `O=C(c1ccco1)N1CCN(Cc2cc(=O)c(OCc3c(F)cccc3Cl)co2)CC1`: 7.1%; `CCCCCC(=O)N(O)C1CC(=O)N(c2ccccc2)C1=O` (stereo not shown): 4.32%. Next, `Cc1cccc(NC(=O)CC2C(=O)NCCN2C(=S)Nc2ccccc2)c1` (stereo not shown): 9.08%; `Cc1cccc(Cn2cnc3c(nnn3Cc3ccc(F)cc3)c2=O)c1`: -0.799%. Then `CN(Cc1cn(-c2ccccc2)nc1-c1cc2ccccc2o1)C(=O)CCC(=O)O`, with 8.53%; and `CCCC1(C(=O)OC)NC(c2ccco2)C2C(=O)N(C)C(=O)C21` (stereo not shown), with 16.1%; and `CC1=NNC(=O)C1CC(=O)N/N=C/c1ccc(C)o1` (stereo not shown), with 9.85%. Regarding `COc1ccc(CCN=C(N)NS(=O)(=O)c2ccc(C)c(C)c2)cc1OC`, the “hERG current change (%, negative = inhibition) at 1uM” value was 11.4%. With `Nc1c(C(=O)OCC(=O)Nc2ccc(Cl)cc2[N+](=O)[O-])[nH]c(=O)[nH]c1=O`, the “hERG current change (%, negative = inhibition) at 1uM” value was 1.42%. Next, `COC(=O)C(C)Sc1nc2c(c(=O)[nH]c(=O)n2C)n1CCCc1ccccc1` (stereo not shown): -70.1%.

`C[N+](C)(C)c1ccccc1.[I-]`: the “hERG current change (%, negative = inhibition) at 1uM” value was 18.4%. With `O=C(Nc1ccccc1Oc1ccsc1C(=O)O)c1ccccc1`, the “hERG current change (%, negative = inhibition) at 1uM” value is reported as 12.9%. Then `Cc1cc(C)cc(NC(=O)N2CCCC2C(=O)Nc2ccc(-n3cnnn3)c(C)c2)c1` (stereo not shown), with 8.19%; and `O=C(COc1ccc(S(=O)(=O)N2CCOCC2)cc1)Nc1ccc(Cl)c(C(F)(F)F)c1`, with 5.74%; and `Cc1ccc(-c2nnn(CC(=O)N(c3ccccc3)C(C(=O)NCC3CCCO3)c3cccs3)n2)o1` (stereo not shown), with 19.7%.

Turning to `COc1ccc(NC(=O)CN(c2ccc(OC)c(Cl)c2)S(=O)(=O)c2ccccc2)cc1`, the “hERG current change (%, negative = inhibition) at 1uM” value was found to be 5.41%. With `O=C(NCc1ccccc1Cl)C1CCCN(c2ncnc3c2nc2n3CCCCC2)C1` (stereo not shown), the “hERG current change (%, negative = inhibition) at 1uM” value is on record as -1.05%. Next, `CCN(CCNC(=O)c1ccc(CSc2nc3ccncc3[nH]2)cc1)c1ccccc1`: 14.2%; `COc1cccc(-n2nnnc2SCC(=O)Nc2cccc(NC(C)=O)c2)c1`: 7.35%; `Cc1ccc(OC(C)C)c(CN(CCO)CCO)c1.Cl`: 14.2%.

Turning to `CC1(CCc2ccccc2)NC(=O)N(CC(=O)Nc2ccc(S(N)(=O)=O)cc2)C1=O` (stereo not shown), the “hERG current change (%, negative = inhibition) at 1uM” value stood at 0.478%. Next, `COc1ccc(C(=O)N/C(=C\c2cc(OC)c(OC)cc2[N+](=O)[O-])C(=O)NCC(=O)O)cc1`: 19.6%; `O=C(NC1CCCCCC1)c1ccc(OCC2CCCO2)cc1` (stereo not shown): 11.2%.

With `Cc1ccc(-c2cc(=O)c3ccccc3[nH]2)cc1`, the “hERG current change (%, negative = inhibition) at 1uM” value came out at 13.4%.

Turning to `COc1ccc(NC(=O)Cn2nnc(C(N)=O)c2N)c(OC)c1`, the “hERG current change (%, negative = inhibition) at 1uM” value is on record as -0.969%. Turning to `Cc1c(NC(=O)Nc2ccccc2Cl)c(=O)n(-c2ccccc2)n1C`, the “hERG current change (%, negative = inhibition) at 1uM” value turned out to be 7.87%.

With `CNS(=O)(=O)c1cccc(C(=O)OCC(=O)N(CCC#N)c2ccccc2)c1`, the “hERG current change (%, negative = inhibition) at 1uM” value came to 13.3%. Then `CC(=O)c1cc(-c2ccccc2)n(CC(=O)N2CCN(C3CCCC3)CC2)c1C`, with 3.41%. Next, `CCOC(=O)C(=CNc1cc(Cl)c(-c2ccco2)c(Cl)c1)C(=O)OCC`: 5.64%; `N#CCSc1nc2ccccc2c(=O)n1CCC(=O)NCCc1ccccc1`: 16.2%.

`O=C1C(=O)N(CCCN2CCOCC2)C(c2ccc([N+](=O)[O-])cc2)/C1=C(\O)c1ccc2c(c1)OCCO2` (stereo not shown): the “hERG current change (%, negative = inhibition) at 1uM” value is 5.45%. Next, `CCCN(C(=O)/C=C/c1ccco1)c1c(N)n(Cc2ccccc2)c(=O)[nH]c1=O`: 19.2%.

`N#Cc1c2n(c(=O)[nH]c1=O)CCCCC2`: the “hERG current change (%, negative = inhibition) at 1uM” value was determined as 13.7%. On to `CCOC(=O)C1CCCN(S(=O)(=O)CCNC(=O)c2ccccc2)C1` (stereo not shown), for which the “hERG current change (%, negative = inhibition) at 1uM” value was found to be 7.73%. Then `O=C(NCCN1CCCCC1)Nc1ccc(Br)cc1`, with -9.32%; and `C/C(=N\NC(N)=O)c1cccc(Cl)c1`, with 13.1%; and `COc1ccc(/C=N/n2nnnc2N)cc1OC`, with 14.7%. Next, `COc1ccc(NS(=O)(=O)c2ccc(NC(=S)NC(=O)c3ccc(F)cc3)cc2)nn1`: 1.47%. Next, `COC(=O)c1ccc(NC(=O)CN2C(=O)c3ccccc3S2(=O)=O)cc1`: 16.9%; `O=C(CCNC(=O)c1ccc(Br)cc1)NNC(=O)C1COc2ccccc2O1` (stereo not shown): -8.34%. Regarding `c1ccc(N2CCN(c3nc(-c4cccs4)nc4ccccc34)CC2)cc1`, the “hERG current change (%, negative = inhibition) at 1uM” value was 4.12%.

In the case of `CCN(CC)S(=O)(=O)c1ccc(NC2c3ccccc3C(=O)N2Cc2ccco2)cc1` (stereo not shown), the “hERG current change (%, negative = inhibition) at 1uM” value was determined as 9.64%.

On to `COC(CNC(=O)c1c[nH]c2ccc(S(=O)(=O)N(C)c3ccc(F)cc3)cc2c1=O)OC`, for which the “hERG current change (%, negative = inhibition) at 1uM” value was 11.7%. Then `COc1cc2cc(CCOC(=O)c3ccc(C#N)cc3)oc(=O)c2cc1OC`, with -4.07%; and `CC1(C)CC(NC(=O)c2cc([N+](=O)[O-])cc([N+](=O)[O-])c2)CC(C)(C)N1`, with 16.7%. In the case of `NC(=O)C1(N2CCCCC2)CCN(C(=S)NC2CCCC2)CC1`, the “hERG current change (%, negative = inhibition) at 1uM” value came to 11.2%. Regarding `Nc1c(C(=O)NCC2CCCO2)c2nc3ccccc3nc2n1Cc1ccco1` (stereo not shown), the “hERG current change (%, negative = inhibition) at 1uM” value was found to be 13.5%.

Take `Cc1ccc(C(C(=O)NC2CCCC2)N(C(=O)CNC(=O)c2ccco2)c2ccccc2)o1` (stereo not shown): the “hERG current change (%, negative = inhibition) at 1uM” value is listed as -1.97%. Next, `Cc1ccc(C(=O)OC(C)C(=O)N(C)C2CCCCC2)cc1S(=O)(=O)N1CCCCC1` (stereo not shown): 12.3%; `Cc1[nH]n(C)c(=O)c1N=Nc1ccc(S(C)(=O)=O)cc1`: 2.01%. Next, `CCC(C)(C)n1nnnc1C(c1cc2ccc(OC)cc2[nH]c1=O)N1CCCCC1` (stereo not shown): -13%; `COc1ccc(CCNC(=O)c2cc3cc(F)ccc3nc2C)cc1OC`: 22.4%; `COCCn1nnnc1C(c1ccc(OC)c(OC)c1)N1CCN(C(=O)c2ccco2)CC1` (stereo not shown): 8.77%. As to `CN=C1S/C(=C\c2c(OC)cc(OC)cc2OC)C(=O)N1C`, the “hERG current change (%, negative = inhibition) at 1uM” value worked out at 18.5%. Then `O=C(c1ccccc1)c1cnc(Nc2ccccc2Cl)s1`, with -1.88%; and `Cc1ccc(-c2nnn(CC(=O)N(c3ccc4c(c3)OCCO4)C(C(=O)NCC3CCCO3)c3ccc(F)cc3)n2)o1` (stereo not shown), with 10.9%. For the molecule `Cc1ccccc1OCC(=O)NC1=NCCS1`, the “hERG current change (%, negative = inhibition) at 1uM” value is given as 2.77%. Next, `O=C1NCC(COCc2ccccc2)O1` (stereo not shown): 5.8%.

`Cn1c(=O)cc(SCC(=O)NCCN2CCN(c3ccccc3F)CC2)c2cc(Cl)ccc21`: the “hERG current change (%, negative = inhibition) at 1uM” value was found to be 5.42%. Next, `CC1(C)Cc2cccc(OCC(=O)NCc3ccc(F)cc3)c2O1`: 0.591%.

`C/C(=N\O)c1ccco1`: the “hERG current change (%, negative = inhibition) at 1uM” value was 14.9%.

On to `Cc1ccc(S(=O)(=O)c2cn(CC(=O)Nc3ccccc3)c3ccc(F)cc3c2=O)cc1`, for which the “hERG current change (%, negative = inhibition) at 1uM” value is 9.84%. Then `COc1ccc(C(=O)CC(=O)C(=O)Nc2cc([N+](=O)[O-])ccc2OC)cc1`, with 13.4%; and `Cc1ccccc1-n1c2nc(=O)n(C)c(=O)c-2cc2ccccc21`, with 18.5%; and `O=C(NCC(=O)N1CCN(S(=O)(=O)c2ccccc2C(F)(F)F)CC1)c1sc2ccccc2c1Cl`, with 7.87%. Then `O=C(Nc1ccccc1F)Nc1ccccc1Br`, with 4.62%. Then `Cc1nc(N)c(Cc2ccccc2F)c(N)n1`, with 5.7%; and `CCN1C(=O)N/C(=C/c2ccc(Sc3ccc(C)cc3)o2)C1=O`, with 14.4%. As for `COc1ccc(S(=O)(=O)N(C)CC(=O)NCC2CCCO2)cc1OC` (stereo not shown), the “hERG current change (%, negative = inhibition) at 1uM” value came out at 13.3%. Then `Cl.O=C(c1cccc(S(=O)(=O)N2CCOCC2)c1)N1CCN(Cc2ccc3c(c2)OCO3)CC1`, with 0.32%; and `O=C(CCNC(=O)Cn1ccc2ccccc2c1=O)NCc1ccccn1`, with 4.34%; and `CN(C)S(=O)(=O)c1ccc(S(=O)(=O)NCCN2CCOCC2)cc1.Cl`, with 11.2%. Then `CSc1nn2c(C(F)(F)F)cc(C(F)(F)F)nc2c1C(=O)O`, with 9.28%. Next, `COc1cc(CNCc2cccs2)cc(Br)c1OC.Cl`: 7.99%.

Turning to `CCC(CC)C(=O)Nc1c2c(nn1-c1ccc(F)cc1)CS(=O)(=O)C2`, the “hERG current change (%, negative = inhibition) at 1uM” value was 14%. Regarding `O=C1N(CN2CCC3(CC2)OCCO3)c2ccccc2C12OCCCO2`, the “hERG current change (%, negative = inhibition) at 1uM” value is -9.92%. For `COc1ccc(CCC(=O)NNC(=O)Nc2ccc(C(C)C)cc2)cc1`, the “hERG current change (%, negative = inhibition) at 1uM” value was 18.8%. Regarding `COc1cccc(OC)c1C(=O)Nc1ccc(S(=O)(=O)Nc2cc(C)nc(C)n2)cc1`, the “hERG current change (%, negative = inhibition) at 1uM” value was 10.9%.

Take `COC(=O)c1sc2cc(C(F)(F)F)cnc2c1-c1ccccc1`: the “hERG current change (%, negative = inhibition) at 1uM” value was found to be 3.09%. Then `NC(=O)c1ccc(CN2CCc3ccccc3C2)cc1`, with 10.9%; and `Cc1ccc(S(=O)(=O)NCC(=O)N(CC(=O)NCc2ccco2)C2CCCC2)cc1`, with 9.4%. Then `CCCCCCCCNC(=O)c1cccnc1SCC(=O)Nc1ccccc1OC`, with 4.89%; and `CCN(CC)c1ccccc1`, with 7.02%.

As to `CCOC(=O)C1CCCC(NS(=O)(=O)c2ccc(NC(C)=O)cc2)C1` (stereo not shown), the “hERG current change (%, negative = inhibition) at 1uM” value is recorded as 7.71%. Then `NNC(=S)NCc1cccnc1`, with 1.74%; and `CCOC(=O)c1ccc(NC(=O)NCc2cccnc2)cc1`, with 12.4%; and `O=C(c1cc(-c2ccncc2)nc2ccccc12)N1CCC2(CC1)OCCO2`, with -4.07%.
